# Test results as given in PubChem BioAssay AID1454 (National Center for Advancing Translational Sciences (NCATS), 2008).
# Where “and” joins values, the source holds several entries; their conditions need not be identical. Equal entries are not always repeated. About 550 (0.42%) of roughly 130,000 compounds were called active. The shares of active, inactive and inconclusive entries below differ from those in the screen. The call rests on the fitted dose curve; in most records, active means well fitted inhibition curve with a large enough effect; inconclusive means small, poorly fitted or top-dose-only effect, or effect the other way; inactive means flat fitted curve, though single readings scatter. Potencies beside an inconclusive call are fits to weak or partial responses and may not hold up.
# Experiment: qHTS Assay for Inhibitors of the ERK Signaling Pathway using a Homogeneous Screening Assay; Stimulation with EGF; further: nearly all actives have a fitted effect of over 55% in size
# Settings: HEK293-V1b, EGF-stimulated phospho-ERK AlphaScreen
# In short: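 Phospho-ERK1/2 measured by AlphaScreen (SureFire) after 5 min 25 nM EGF stimulation of V1b-expressing HEK293 cells preincubated 30 min at 37C with titrated compounds; data scaled to DMSO and EGF controls, Hill-fitted AC50.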
# Potency means the concentration at half of the fitted maximal effect; tags describe the fitted curve by direction and shape.
row,Compound,Potency
1,CC(C)(C)NC(=O)Nc1cccc(Cl)c1Cl,"inconclusive: 31.6 µM [inhibitor, partial curve, poor fit]"
2,NS(=O)(=O)c1ccc(Nc2nc(-c3ccc(F)cc3)cs2)cc1,"inconclusive: 25.1 µM [inhibitor, single point]"
3,O=[N+]([O-])c1ccc([N+](=O)[O-])c(Nc2ccc(N3CCOCC3)cc2)c1,"inconclusive: 12.6 µM [inhibitor, partial curve]"
4,Cc1c(C(=O)N2CCC(C)CC2)sc2ncnc(N(C)c3ccccc3)c12,inactive
5,Cc1ncc([N+](=O)[O-])n1CC(C)O (stereo not drawn),"inconclusive: 5.01 µM [inhibitor, full curve]"
6,COc1ccc(CCN2C(=O)CSC2=Nc2ccc(C(C)C)cc2)cc1OC,"inconclusive: 31.6 µM [inhibitor, single point]"
7,COc1ccc2c(c1)C(=O)[C@H](OC(=O)Nc1cc(OC)c(OC)c(OC)c1)[C@@H](c1ccc(OC)c(Br)c1)O2,inactive
8,[O-]/C(=C(\C(=S)Nc1cccc2ccccc12)[n+]1ccccc1)c1ccc(OC(F)F)cc1,"inconclusive: 39.8 µM [inhibitor, single point]"
9,C/C(=N\Nc1ccc(S(=O)(=O)N2CCOCC2)cc1[N+](=O)[O-])C(C)C,"inconclusive: 25.1 µM [inhibitor, single point]"
10,O=S(=O)(c1ccccc1)N1CCC2(CC1)CN(c1ncccn1)C2,inactive
11,C[C@H](NCCc1ccc(O)cc1)[C@@H](O)c1ccc(O)cc1,inactive
12,O=C(C1CCCC1)N1CCC(CO)(Cc2ccccc2Cl)CC1,"inconclusive: 3.55 µM [inhibitor, single point]"
13,O=C(COc1ccc(Cc2ccccc2)cc1)c1ccc(F)cc1,"inconclusive: 39.8 µM [activator, single point]"
14,CCOc1ccc(Nc2nc(Cl)nc(N3CCN(c4ccc(OC)cc4)CC3)n2)cc1,"inconclusive: 14.1 µM [inhibitor, partial curve, poor fit]"
15,COc1cccc(NC(=S)/C(=C(\[O-])c2ccc(OC(F)F)cc2)[n+]2ccccc2)c1,inactive
16,COC(=O)C1=C(C)N(C)C(=O)/C1=C\c1cccs1,"inconclusive: 17.8 µM [inhibitor, single point]"
17,CC(C)C[C@@H](CC(=O)N[C@@H](CCC(=O)O)CC(=O)O)NC(=O)[C@@H]1CNCC[C@H]1NC(=O)C[C@H](CCCN)NC(=O)C[C@H](Cc1c[nH]c2ccccc12)NC(=O)[C@@H]1CNCC[C@H]1N,inactive
18,CC(C)(C)c1ccc(OCCOc2ccc(C(C)(C)C)cc2NC=O)c(NC=O)c1,active: 31.6 µM
19,CC1=C(CO)C(=O)OC([C@@H](C)C2CC[C@H]3C4C[C@H]5O[C@]56[C@@H](O)C=CC(=O)[C@]6(C)C4CC[C@]23C)C1 (stereo partly drawn),inactive
20,Cc1cc(-c2ccccc2)n(-c2cc(N/N=C/c3ccccc3O)ncn2)n1,active: 10 µM
21,COc1ccc(CN2C(=O)N(c3ccccc3)C(=O)C2CC(=O)Nc2ccccc2)cc1OC (stereo not drawn),"inconclusive: 35.5 µM [inhibitor, single point]"

row,Compound,Potency
1,N#CC1=C(N)OC2=C(CCc3ccccc32)C1c1ccccc1 (stereo not drawn),"inconclusive: 31.6 µM [inhibitor, single point]"
2,CCCC(=O)N(C1CC(C)C(C#N)(C#N)C1(C#N)C#N)N(C)C (stereo not drawn),"inconclusive: 35.5 µM [inhibitor, single point]"
3,O=C(O)c1ccc(N/N=C/c2ccc(OC(=O)c3ccccc3Cl)cc2)cc1,"inconclusive: 39.8 µM [inhibitor, single point]"
4,COc1ccc(/C=C2\SC(=S)N(CCCC(=O)Nc3ccccn3)C2=O)cc1OC,"inconclusive: 8.91 µM [inhibitor, partial curve]"
5,CCc1ccc(NC(=S)NC(=O)c2c(-c3ccccc3Cl)noc2C)cc1,inactive
6,COc1cccc(/C=N/n2cnc3c(cnn3-c3ccccc3)c2=O)c1,"inconclusive: 39.8 µM [inhibitor, single point]"
7,Cc1c(C(=O)OCC(=O)Nc2ccc(C(N)=O)cc2)cccc1[N+](=O)[O-],inactive
8,O=C(NCCc1c[nH]c2ccccc12)C(=O)NCC1OCCN1S(=O)(=O)c1cc(F)ccc1F (stereo not drawn),"inconclusive: 8.91 µM [inhibitor, full curve, poor fit]"
9,Cc1ccc(SC[C@H](c2ccccc2)N2CCN(CC(C)C)CCC2=O)cc1,active: 31.6 µM
10,Cc1cc(N/N=C/c2ccc(O)cc2O)nc(-c2ccccc2O)n1,"inconclusive: 28.2 µM [inhibitor, single point]"
11,CC1CCc2c(nc3sc4c(c3c2N)CCCC4)C1 (stereo not drawn),inactive
12,COc1ccc2ccc3c(c2c1)N=CC1(O3)N(C)c2ccccc2C1(C)C (stereo not drawn),"inconclusive: 39.8 µM [inhibitor, single point]"
13,Oc1ccc(-c2nc(-c3ccc(F)cc3)c(-c3ccncc3)[nH]2)cc1,"inconclusive: 39.8 µM [inhibitor, single point]"
14,O=C1c2ccccc2C(=O)N1CCCCN(C(=O)c1cc([N+](=O)[O-])cc([N+](=O)[O-])c1)c1ccc(Cl)cc1,"inconclusive: 12.6 µM [inhibitor, partial curve, poor fit]"
15,O=C(N/N=C/c1cc(Cl)cc([N+](=O)[O-])c1O)NC12CC3CC(CC(C3)C1)C2,"inconclusive: 17.8 µM [inhibitor, partial curve]"
16,CCC1CSC(Nc2ccc(C(=O)/C=C/c3ccc(Oc4ccccc4)cc3)cc2)=N1 (stereo not drawn),"inconclusive: 10 µM [inhibitor, partial curve]"
17,COc1ccccc1NC(=O)c1cc2cc(Br)ccc2cc1O,inactive
18,CC(C)C[C@H](NC(=O)c1[nH]cnc1C(=O)N[C@H](C)c1ccccc1)C(=O)OC(C)(C)C,"inconclusive: 22.4 µM [inhibitor, partial curve, poor fit]"
19,CCOC(=O)C1CCC(CN(Cc2ccccc2C)S(=O)(=O)c2ccc([N+](=O)[O-])cc2)CC1 (stereo not drawn),"inconclusive: 17.8 µM [inhibitor, partial curve]"
20,COCc1cc(C)[nH]c(=O)c1C(=O)NC12CC3CC(CC(C3)C1)C2,"inconclusive: 14.1 µM [inhibitor, partial curve]"
21,O=C(O)C12CC3CC(C1)CC(n1ncc(NCc4ccco4)c(Cl)c1=O)(C3)C2,"inconclusive: 0.501 µM [activator, full curve, poor fit]"

row,Compound,Potency
1,O=C(Cc1cccs1)NCCSc1c(-c2ccc(Cl)cc2)[nH]c2ccccc12,inactive
2,CCCn1c(C)cc(C(=O)CSc2nc3ccccc3c(=O)n2Cc2ccco2)c1C,inactive
3,CCCC(Oc1ccc(Br)cc1)c1nc2c3cc(OC)c(OC)cc3nc(=S)n2[nH]1 (stereo not drawn),"inconclusive: 28.2 µM [inhibitor, partial curve, poor fit]"
4,CC(=O)c1cccc(NC(=O)C(Sc2ncnc3ccccc23)c2ccccc2)c1 (stereo not drawn),"inconclusive: 8.91 µM [activator, full curve]"
5,COc1ccc(C(=O)c2ccc(Br)cc2)cc1,"inconclusive: 15.8 µM [inhibitor, partial curve]"
6,O=C(c1ccccc1)c1coc2c1C(=O)c1ccccc1C2=O,"inconclusive: 22.4 µM [inhibitor, single point]"
7,COc1cccc(C(=O)C2CCCN(CC3=Cc4cc(OC)ccc4OC3)C2)c1 (stereo not drawn),"inconclusive: 28.2 µM [inhibitor, partial curve]"
8,CNC(=S)N(CCc1c(C)[nH]c2ccc(Cl)cc12)Cc1cc(OC)c(OC)c(OC)c1,"inconclusive: 10 µM [inhibitor, partial curve]"
9,COc1ccc(N/N=C(/C(N)=O)C2=NC(C)(C)Cc3ccccc32)cc1,"inconclusive: 20 µM [inhibitor, single point]"
10,O=C(CCN1C(=O)/C(=C/c2ccc(F)cc2)SC1=S)NNC(=O)c1ccncc1,inactive
11,CCOCCCNCc1ccc(OCC(=O)N2CCOCC2)c(OC)c1,"inconclusive: 4.47 µM [inhibitor, single point]"
12,CC1(C)OC2CC3C4CC(F)C5=CC(=O)CC[C@@]5(C)C4C(O)C[C@@]3(C)[C@]2(C(=O)CO)O1 (stereo partly drawn),inactive
13,CC1CCC(C(C)C)C(OC(=O)Cn2c(-c3ccccc3)[n+](C)c3ccccc32)C1 (stereo not drawn),"inconclusive: 35.5 µM [inhibitor, single point] and inconclusive: 31.6 µM [inhibitor, single point]"
14,Cc1ccc(-c2ccc(/C=C(\C#N)C(N)=S)n2C)cc1,"inconclusive: 39.8 µM [inhibitor, single point]"
15,COc1cc(/C=C2\SC(=Nc3ccccc3)N(CCc3c[nH]c4ccccc34)C2=O)ccc1OC(C)C(=O)O (stereo not drawn),"inconclusive: 31.6 µM [inhibitor, single point]"
16,COc1ccc(CCNc2oc(COc3ccccc3Cl)nc2C#N)cc1OC,"inconclusive: 35.5 µM [inhibitor, single point]"
17,COc1ccc(-c2[nH]ncc2CN2CCN(C3CCCCC3)C(=O)C2)cc1F,"inconclusive: 35.5 µM [inhibitor, single point]"
18,O=P(c1ccccc1)(c1ccccc1)c1nc(-c2ccc(Cl)cc2)oc1N1CCOCC1,"inconclusive: 5.01 µM [inhibitor, full curve, poor fit]"
19,C/C(NC(=O)c1cccs1)=C1\C(=O)C[C@@H]2[C@H]1C2(C)C,"inconclusive: 14.1 µM [inhibitor, single point]"
20,CCCCCCCn1c2c(c(=N)c3c1CCC3)CCCC2,inactive
21,COc1cc2ncnc(Nc3cccc(Cl)c3)c2cc1OC,active: 100 nM and active: 316 nM and active: 251 nM
